Measured values from article PMC4336329 (PLoS ONE, 2015).
The whole screen tested about 310,000 compounds, of which about 2,200 (0.71%) showed an effect of 50% or more. The effect is printed as a negative number. Some of the results follow.

Target: human ether-à-go-go-related gene (hERG) potassium channel (human, UniProt Q12809)
Test: primary screen, population patch clamp on CHO cells stably expressing hERG

Sequence of human ether-à-go-go-related gene (hERG) potassium channel (Q12809 whole entry, looked up): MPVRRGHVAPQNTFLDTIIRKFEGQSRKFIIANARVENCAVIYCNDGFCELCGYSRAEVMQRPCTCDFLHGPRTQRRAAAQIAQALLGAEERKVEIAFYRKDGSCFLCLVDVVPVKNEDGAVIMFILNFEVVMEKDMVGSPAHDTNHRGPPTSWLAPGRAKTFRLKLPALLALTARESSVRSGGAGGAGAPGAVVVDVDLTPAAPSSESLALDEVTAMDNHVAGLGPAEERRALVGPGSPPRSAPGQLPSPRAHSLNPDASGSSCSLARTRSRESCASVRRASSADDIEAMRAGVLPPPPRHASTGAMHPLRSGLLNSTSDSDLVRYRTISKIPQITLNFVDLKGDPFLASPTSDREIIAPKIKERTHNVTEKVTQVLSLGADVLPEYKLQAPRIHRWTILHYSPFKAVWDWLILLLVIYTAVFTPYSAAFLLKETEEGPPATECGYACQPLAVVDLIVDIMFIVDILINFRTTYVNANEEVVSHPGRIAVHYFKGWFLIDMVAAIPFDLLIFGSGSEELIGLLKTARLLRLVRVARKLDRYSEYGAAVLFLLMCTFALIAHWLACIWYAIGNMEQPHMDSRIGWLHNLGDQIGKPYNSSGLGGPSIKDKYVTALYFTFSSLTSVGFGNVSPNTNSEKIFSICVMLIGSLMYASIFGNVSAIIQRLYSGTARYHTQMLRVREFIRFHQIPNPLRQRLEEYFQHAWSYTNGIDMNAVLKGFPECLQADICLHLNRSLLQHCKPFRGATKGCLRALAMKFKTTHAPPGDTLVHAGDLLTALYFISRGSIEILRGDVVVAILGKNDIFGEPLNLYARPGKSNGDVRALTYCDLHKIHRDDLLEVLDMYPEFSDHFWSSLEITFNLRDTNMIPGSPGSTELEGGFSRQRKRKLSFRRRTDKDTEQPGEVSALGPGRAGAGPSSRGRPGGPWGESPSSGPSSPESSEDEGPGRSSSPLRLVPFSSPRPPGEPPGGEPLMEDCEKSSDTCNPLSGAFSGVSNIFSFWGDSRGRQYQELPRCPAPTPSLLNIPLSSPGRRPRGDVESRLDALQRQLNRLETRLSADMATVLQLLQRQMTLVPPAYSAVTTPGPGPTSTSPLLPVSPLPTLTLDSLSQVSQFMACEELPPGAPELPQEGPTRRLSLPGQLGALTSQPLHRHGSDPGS

| Structure (SMILES) | hERG current change (%, negative = inhibition) at 1uM [%] |
| --- | --- |
| COc1cc2c(cc1OC)-c1cc(NC3CC3)nc(=O)n1CC2 | -1.53 |
| CCC1(C)OC(=O)N(CCCn2ccnc2C)C1(C)O (stereo not shown) | -13.9 |
| Cc1cccc(N2CCN(Cc3cn(C)nc3-c3ccccc3F)CC2)n1 | -7.34 |
| CC(=O)NCCC(=O)Nc1cc(S(=O)(=O)N2CCOCC2)ccc1N1CCOCC1 | 15.2 |
| N/C(=N\OC(=O)c1ccc(Cl)cc1Cl)c1ccccc1 | -0.32 |
| c1ccc(-c2ccnc3nc(N4CCN(c5ccccc5)CC4)nn23)cc1 | 3.29 |
| CC1CN(C(=O)CCC(=O)NCCCc2ccccc2)c2ccccc2O1 (stereo not shown) | -15.5 |
| Nc1nccc(/C=C/c2c(Cl)cccc2Cl)n1 | 10.7 |
| Cc1c(N2C(=O)/C(=C3/C(=O)N(C)c4ccccc43)SC2=S)c(=O)n(-c2ccccc2)n1C | 10.3 |
| CCOC(=O)c1nccnc1C(=O)Nc1cccc(C(F)(F)F)c1 | 4.52 |
| Cc1cc(C)c2nc(N3CCCC(C(=O)NCCCN4CCOCC4)C3)sc2c1 (stereo not shown) | 3.78 |
| CCN(C(=O)COC(=O)c1cc([N+](=O)[O-])ccc1N1CCOCC1)C1CCS(=O)(=O)C1 (stereo not shown) | 6.81 |
| NC(=S)N/N=C/c1cn(-c2ccccc2)nc1-c1cccnc1 | 15.1 |
| C#CC(CC)(CC)NC(=O)/C=C/C(=O)O | 9.75 |
| CN(CC(=O)Nc1ccccc1Cl)C(=O)CSc1ncc(C(F)(F)F)cc1Cl | 12.1 |
| O=C(Nc1nnc(-c2ccc(F)cc2)o1)C1CCCN1S(=O)(=O)c1cccs1 (stereo not shown) | 3.66 |
| C=CCn1c(C)nnc1SCC(=O)Nc1nccs1 | 14.8 |
| CN(Cc1nc(-c2cnccn2)no1)CC(O)c1ccccc1 (stereo not shown) | 7.88 |
| CC(C)C(C(=O)Nc1ccc(N2CCOCC2)cc1)N1C(=O)c2ccccc2C1=O (stereo not shown) | 10 |
| FC(F)(F)Oc1ccccc1-c1nnc(-c2cccc(C(F)(F)F)c2)o1 | 9.49 |
| c1ccc(CCn2cnc3ccccc32)cc1 | 11.4 |
| O=C(Nc1ccccc1)c1ccc(COc2ccccc2)cc1 | 14.5 |

| Structure (SMILES) | hERG current change (%, negative = inhibition) at 1uM [%] |
| --- | --- |
| COC(=O)c1ccccc1NC(=O)c1cnc2sccn2c1=O | 15.6 |
| CCC1(c2ccccc2)NC(=O)N(CC(=O)Nc2cc(Cl)ccc2N2CCN(C)CC2)C1=O (stereo not shown) | -0.399 |
| CC(C)(C)c1ccc(CNC(=O)c2ccc3c(c2)NC(=O)CO3)cc1 | 6.83 |
| O=C(O)CCCCCNC(=O)/C=C/c1ccco1 | 6.43 |
| Cl.O.O=C1C2CCCCN2C(=O)N1CCCCN1CCN(c2ccccc2Oc2ccccc2)CC1 (stereo not shown) | -24.2 |
| COCCN(C(=O)Cc1cccs1)C(C(=O)NC1CCCC1)c1cc(OC)c(OC)c(OC)c1 (stereo not shown) | 12.7 |
| O=C(NCCc1c[nH]c2ccccc12)c1cc2sccc2n1Cc1ccccc1 | 4.65 |
| COc1ccnc(Oc2ccc3ccccc3c2)c1C#N | 6.98 |
| CC(=O)Nc1ccc(NC(=O)C(C)OC(=O)c2ccc3c(c2)OCCO3)cc1 (stereo not shown) | 14.1 |
| Cc1ccc(C)c(C(C)NC(=O)c2ccncc2)c1 (stereo not shown) | 0.292 |
| CC(NC(=S)Nc1ccccc1C(F)(F)F)C1CC2CCC1C2 (stereo not shown) | -6.39 |
| O=C(CN1CCN(C(=O)CNC(=O)c2ccc3c(c2)OCO3)CC1)Nc1ccccc1Cl | 7.42 |
| CCn1cc(S(=O)(=O)c2ccc(C)cc2)[nH]c1=O | 16.1 |
| Cc1ccccc1/C=N/NC(=O)Cn1cnc([N+](=O)[O-])n1 | 3.03 |
| COc1ccc(CCNC(=O)CNCCc2ccc(F)cc2)cc1.O=C(O)C(=O)O | 1.57 |
| C=CCC1NS(=O)(=O)OC2CCCCC12 (stereo not shown) | 6.75 |
| C/C(=N\NC(=O)c1cnccn1)c1ccc([N+](=O)[O-])cc1 | 8.14 |
| COc1ccccc1CN(C(=O)Cc1cccs1)C(C(=O)NC1CCCC1)c1ccncc1 (stereo not shown) | 3.49 |
| CC(=O)C1=C(C)Nc2ncnn2C1c1ccccc1F (stereo not shown) | 11.1 |
| Fc1ccc(OCCOCCN2CCNCC2)cc1.O=C(O)C(=O)O | 10.4 |
| CCC(=O)Nc1ccc(Oc2ccc3c(c2)C(=O)NC3=O)cc1 | 15.8 |
| Cc1ccc(-n2[nH]c(C)c(/C=N/N3C(=O)c4cccc5cccc(c45)C3=O)c2=O)cc1 | 13.9 |

| Structure (SMILES) | hERG current change (%, negative = inhibition) at 1uM [%] |
| --- | --- |
| CCOC(=O)Cn1cc(-c2ccccc2)nn1 | -4.75 |
| O=C(CCC(=O)c1cccs1)NCc1ccncc1 | 13 |
| O=C(O)CCCCCNS(=O)(=O)c1ccc2c(c1)OCCO2 | 8.35 |
| O=C(NC1CS(=O)(=O)CC1NCc1ccco1)c1ccccc1 (stereo not shown) | 2.64 |
| CCOC(=O)C1=C(N)n2c(s/c(=C/c3ccco3)c2=O)=C(C(=O)OC)C1c1ccco1 (stereo not shown) | 6.24 |
| COC(=O)C(C)Sc1nnc(Cc2cc(=O)[nH]c(=O)[nH]2)n1-c1cc(C)ccc1C (stereo not shown) | 9.21 |
| Nn1c(SCc2ccc(Br)cc2)nnc1-c1ccccn1 | 14.5 |
| Cc1ccc(NC(=O)CC2OC(=O)c3ccccc32)cc1S(=O)(=O)N1CCOCC1 (stereo not shown) | 4.7 |
| CN1CCN(NC(=O)c2ccc(S(=O)(=O)N3CCCCCC3)cc2)CC1.Cl | 3.69 |
| CC(C)CNc1nnnc2c1sc1nc(N3CCOCC3)c3c(c12)CC(C)(C)SC3 | 11.5 |
| CC(NS(=O)(=O)c1ccc([N+](=O)[O-])cc1)C(c1cccs1)N1CCOCC1 (stereo not shown) | 13.9 |
| COc1ccc(C(C#N)(CCC#N)CCC#N)cc1OC | -10 |
| Cc1cc(=O)oc2cc(NC(=O)c3ccccc3C(=O)O)ccc12 | 16.8 |
| Cc1ccc(C(=O)COC(=O)CNC(=O)c2cccs2)cc1C | 15.3 |
| CN(CCC1CCOCC1)C(=O)CC1C(=O)NCCN1C/C=C/c1ccccc1 (stereo not shown) | 11.7 |
| CCC(=O)OCC(=O)Nc1ncc(C(F)(F)F)cc1Cl | 5.88 |
| Cc1cccc(C)c1OCC(O)CN.Cl.O (stereo not shown) | 10.5 |
| CCc1nnc(NC(=O)c2ccc(S(=O)(=O)NCC(C)C)cc2)s1 | 9.59 |
| COc1ccccc1N1CCN(c2nc3ccccc3nc2C(C#N)C(=O)OC(C)C)CC1 (stereo not shown) | -5.03 |
| COC(=O)c1[nH]c2cccc(OC)c2c1NC(=O)CCN1CCSCC1 | 19.2 |
| Cc1cccc(C)c1N1C(=O)CCC(C)(C)C1=O | 11.2 |
| COc1ccc(CC(=O)OCC(=O)Nc2cccc(Cl)c2)cc1 | 14.2 |

| Structure (SMILES) | hERG current change (%, negative = inhibition) at 1uM [%] |
| --- | --- |
| O=C(COC(=O)CCCN1C(=O)c2ccccc2C1=O)Nc1cc(Cl)cc(Cl)c1 | -1.99 |
| COCC(C)N=CC1=C(O)CC(C)(C)CC1=O (stereo not shown) | 12.9 |
| c1ccc(CSc2nnc(-c3sccc3-n3cccc3)o2)cc1 | 2.04 |
| Cl.NC(=O)c1c(NC(=O)c2ccccc2)sc2c1CCN(Cc1ccccc1)C2 | 8.64 |
| CNS(=O)(=O)c1cn(CC(=O)NCc2ccc(F)cc2)cc1S(=O)(=O)NC | 18.1 |
| S=c1[nH]nc(Cc2n[nH]c(=S)n2-c2ccccc2)n1-c1ccccc1 | 19.7 |
| O=C(NCC(=O)N1CCN(c2ccccc2O)CC1)c1ccc2ccccc2c1 | 7.74 |
| C=CCOC(=O)C1=C(C)OC(N)=C(C#N)C1c1ccco1 (stereo not shown) | 17.6 |
| Cc1ccc(NC(=O)C2CCN(S(=O)(=O)c3ccc(Cl)c(C(F)(F)F)c3)CC2)nc1 | 2.79 |
| COc1ccc(-c2cc(C(=O)N3CC(C)CC(C)C3)c3ccccc3n2)cc1 (stereo not shown) | 16.3 |
| COC(=O)c1cn(NC(=O)Cc2c(F)cccc2Cl)c(=O)c2ccccc12 | 1.62 |
| COc1ccc(N=Cc2c(O)n(-c3cccc(C)n3)c(=O)c3ccccc23)c(OC)c1 | 7.46 |
| CCN(CC)CCNC(=O)c1nn(-c2ccc(C)cc2)c(=O)c2c1c1ccccc1n2C | -8.07 |
| Cl.O=C(c1ccc(F)cc1)C(CCCCCC(CN1CCOCC1)C(=O)c1ccc(F)cc1)CN1CCOCC1 (stereo not shown) | -14 |
| CCCCCn1c(S(=O)(=O)O)nc2ccccc21 | 6.65 |
| CNC(=S)Nc1cc(S(=O)(=O)Nc2cc(Cl)ccc2Cl)ccc1N1CCCC1 | 11.7 |
| COC(=O)c1cc(NC(=O)C2CC=CCC2C(=O)O)cc(C(=O)OC)c1 (stereo not shown) | 11.1 |
| CCCCN(C)C(=O)c1ccc(S(=O)(=O)N2CCOCC2)cc1 | 13.5 |
| N#CC1=C(N)Oc2ccc3ccc(O)cc3c2C1c1cccnc1 (stereo not shown) | 12.2 |
| CCOc1ccc(CN2C(=O)c3ccccc3C2=O)cc1C(=O)NC1CC(C)(C)NC(C)(C)C1 | 12.4 |
| CN1CCN(C(=O)/C(=C/c2cn(S(=O)(=O)N(C)C)c3ccccc23)NC(=O)c2ccccc2F)CC1 | 9.45 |
| O=C(N/N=C/c1c(Cl)[nH]c2ccccc12)c1sc2ccccc2c1Cl | 12.7 |
